# Values joined by “and” are separate entries in the source; they are usually repeats but may differ in a detail not shown here. Equal entries are not always repeated. Inconclusive results, whose numbers are uncertain, are shown with a selection of clear calls. For some of these results: Potencies beside an inconclusive call are fits to weak or partial responses and may not hold up. Some compounds were tested as several samples or in several runs, with calls that do not always agree. Active and inactive are the calls of the source. Unless noted, calls come from the whole dose curve; as a rule, active = well fitted curve in the direction sought with a large enough effect in the repeat runs; inconclusive = weak or mixed curves; inactive = no such curve, though single readings can be large; an effect the other way counts as inactive or inconclusive.
# Assays:
# [1] = molecular target: Androgen receptor (Homo sapiens) (UniProt P10275); assay: qHTS assay to identify small molecule agonists of the androgen receptor (AR) signaling pathway using the MDA cell line (AID 743040; note: potency is the fitted concentration of half-maximal effect; nearly all actives have a fitted effect of over 20% in size); settings: MDA-kb2 AR-luc cells, MMTV luciferase, 16 h; activity change: at 70.3 µM (top of the series), stronger effect = higher value
# Method in brief: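 Human breast carcinoma MDA-kb2 reporter cells (MMTV-luc, AR/GR elements) were treated for 16 h at 37C in 0% CO2 following a 5 h settling period. Signal was quantified by ONE-Glo luminescence.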
# [2] = qHTS assay for identifying genotoxic compounds that show differential cytotoxicity against isogenic chicken DT40 cell lines with known DNA damage response pathways - wild type cell line (AID 743012); settings: DT40 wild type chicken cells viability, CellTiter-Glo, 40 h; activity change, negative = cytotoxicity: at 68.4 µM (top of the series) unless noted; note: nearly all actives have a fitted effect of over 60% in size; note: potency is the fitted concentration of half-maximal effect; for activity change, negative = cytotoxicity: % is set by controls: 0 for no effect and ±100 for the full control effect
# Method in brief: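 Quantitative HTS on parental DT40 cells: 40 h compound treatment at 37 C/5% CO2, with viability then determined by CellTiter-Glo luminescence. Values serve as the DNA repair-proficient reference for differential cytotoxicity.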
# [3] = qHTS assay for identifying genotoxic compounds that show differential cytotoxicity against isogenic chicken DT40 cell lines with known DNA damage response pathways - Rev3 mutant cell line (AID 743014); settings: chicken DT40 Rev3-/- viability, CellTiter-Glo, 40 h; activity, negative = cytotoxicity: at 68.4 µM (top of the series); note: nearly all actives have a fitted effect of over 55% in size; note: potency is the fitted concentration of half-maximal effect; for activity, negative = cytotoxicity: % is set by controls: 0 for no effect and ±100 for the full control effect
# [4] = qHTS assay to identify small molecule antagonists of the androgen receptor (AR) signaling pathway using the MDA cell line - cell viability counter screen (AID 743041; note: potency is the fitted concentration of half-maximal effect; nearly all actives have a fitted effect of over 45% in size); settings: MDA-kb2 viability, CellTiter-Fluor, 16 h, cells co-treated with R1881 androgen agonist; viability change, negative = cytotoxic: at 70.3 µM (top of the series) unless noted
# Method in brief: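 Same-well cytotoxicity was assessed by CellTiter-Fluor in MDA-kb2 AR-luc cells after 16 h of compound treatment under R1881 agonism.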
# [5] = qHTS assay to identify small molecule antagonists of the thyroid receptor (TR) signaling pathway (AID 743065); note: potency is the fitted concentration of half-maximal effect; nearly all actives have a fitted effect of over 55% in size
# Method in brief: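 GH3.TRE-Luc rat pituitary cells (two TREs driving luciferase) were dosed with compound, then stimulated with 1 nM T3 (final) for 23.5 h at 37 C. ONE-Glo luminescence was the read-out, with CellTiter-Fluor fluorescence as the cytotoxicity counter-screen.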
# [6] = qHTS assay to identify small molecule antagonists of the estrogen receptor alpha (ER-alpha) signaling pathway - cell viability counter screen (AID 743074; calls by dose curve;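 note: HEK293 cells carrying ER-alpha-UAS-bla reporter stimulated with 17beta-estradiol; nearly all actives have a fitted effect of over 45% in size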; note: potency is the fitted concentration of half-maximal effect)
# [7] = qHTS assay to identify small molecule antagonists of the estrogen receptor alpha (ER-alpha) signaling pathway using the BG1 cell line (AID 743080; calls by dose curve;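 note: BG1 cells stimulated with 17beta-estradiol alongside compound; nearly all actives have a fitted effect of over 25% in size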; note: potency is the fitted concentration of half-maximal effect); settings: BG1Luc4E2 ERE-luciferase antagonist mode, luminescence; activity change, negative = inhibition: at 70.3 µM (top of the series) unless noted
# Method in brief: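 BG1-Luc-4E2 cells (endogenous full-length ER-alpha, stable 4×ERE-luciferase) were starved 5 days in phenol-red-free medium with 10% charcoal-stripped FBS, plated 24 h, then given compound plus 17beta-estradiol for 21.5 h at 37 C; ONE-Glo luminescence read after 30 min.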
# [8] = qHTS assay to identify small molecule antagonists of the estrogen receptor alpha (ER-alpha) signaling pathway using the BG1 cell line - cell viability counter screen (AID 743081); settings: BG1Luc4E2 viability, CellTiter-Fluor, 22 h; activity change, negative = cytotoxicity: at 70.3 µM (top of the series) unless noted;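 note: compound given together with 17beta-estradiol as the ER stimulus; nearly all actives have a fitted effect of over 45% in size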; note: potency is the fitted concentration of half-maximal effect
# [9] = qHTS assay to identify small molecule antagonists of the glucocorticoid receptor (GR) signaling pathway - cell viability counter screen (AID 720693); settings: GR-bla HeLa viability, CellTiter-Glo luminescence, 18 h, with 5 nM dexamethasone present; viability change, negative = cytotoxic: at 58.5 µM (top of the series) unless noted; note: nearly all actives have a fitted effect of over 55% in size; note: potency is the fitted concentration of half-maximal effect; for viability change, negative = cytotoxic: % is set by controls: 0 for no effect and ±100 for the full control effect
# [10] = qHTS assay to identify small molecule antagonists of the thyroid receptor (TR) signaling pathway - cell viability counter screen (AID 743064); settings: GH3.TRE-Luc viability, CellTiter-Fluor, 24 h; activity change, negative = cytotoxic: at 70.3 µM (top of the series) unless noted; note: potency is the fitted concentration of half-maximal effect; nearly all actives have a fitted effect of over 50% in size
# Method in brief: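 Same-well viability check: GH3.TRE-Luc cells stimulated with 1 nM T3 alongside test compound for 23.5 h, followed by CellTiter-Fluor fluorescence.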
# [11] = qHTS assay for identifying genotoxic compounds that show differential cytotoxicity against isogenic chicken DT40 cell lines with known DNA damage response pathways - Rad54/Ku70 mutant cell line (AID 743015); settings: DT40 Rad54/Ku70 mutant viability, CellTiter-Glo, 40 h; activity change, negative = cytotoxicity: at 66.8 µM (top of the series); note: potency is the fitted concentration of half-maximal effect; nearly all actives have a fitted effect of over 60% in size
# [12] = qHTS assay to identify small molecule antagonists of the androgen receptor (AR) signaling pathway - cell viability counter screen (AID 743033; note: potency is the fitted concentration of half-maximal effect; nearly all actives have a fitted effect of over 45% in size); settings: AR-bla HEK293 viability, CellTiter-Glo luminescence, 16 h; activity change, negative = cytotoxicity: at 58.5 µM (top of the series) unless noted
# [13] = molecular target: Aromatase (Homo sapiens) (UniProt P11511); assay: qHTS assay to identify aromatase inhibitors (AID 743083); settings: MCF-7 aro ERE, testosterone-driven ERE luciferase, 24 h; activity, negative = inhibition: at 70.3 µM (top of the series); note: potency is the fitted concentration of half-maximal effect; nearly all actives have a fitted effect of over 55% in size
# [14] = tested on: thyroid hormone receptor (rat, GH3 cells); assay: qHTS assay to identify small molecule agonists of the thyroid receptor (TR) signaling pathway (AID 743066; calls by dose curve; note: % is set by controls: 0 for no effect and ±100 for the full control effect); settings: GH3.TRE-Luc cells, TR agonist luciferase, 24 h; activation: at 83.9 µM (top of the series) unless noted
# [15] = molecular target: Estrogen receptor (Homo sapiens) (UniProt P03372); assay: qHTS assay to identify small molecule antagonists of the estrogen receptor alpha (ER-alpha) signaling pathway (AID 743069; active = well fitted curve in the direction sought with a large enough effect in the signal ratio in the repeat runs, not every such curve was filed as active; inconclusive = weak or mixed curves, or effect the other way; inactive = no such curve, though single readings can be large or run the other way; the % refers to the signal ratio; note: potency is the fitted concentration of half-maximal effect); settings: HEK293 ER-alpha-UAS-bla, beta-lactamase ratio, antagonist mode; activity, negative = inhibition: at 69.4 µM (top of the series) unless noted
# Method in brief: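 Reporter cells (ER-alpha-bla, HEK293 background) are conditioned overnight in stripped-serum medium (2% charcoal-stripped FBS). Compound and 17beta-estradiol exposure runs 18 hr at 37C, 5% CO2.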
# [16] = molecular target: Estrogen receptor (Homo sapiens) (UniProt P03372); assay: qHTS assay to identify small molecule agonists of the estrogen receptor alpha (ER-alpha) signaling pathway using the BG1 cell line (AID 743079); settings: BG1Luc4E2 cells, ERE-luciferase agonist, 22 h; activation: at 70.3 µM (top of the series) unless noted; note: potency is the fitted concentration of half-maximal effect; nearly all actives have a fitted effect of over 20% in size
# Tags give direction and shape of the fitted curve or compound fluorescence and quenching.
# Chain of UniProt P11511 (P11511 whole entry, looked up): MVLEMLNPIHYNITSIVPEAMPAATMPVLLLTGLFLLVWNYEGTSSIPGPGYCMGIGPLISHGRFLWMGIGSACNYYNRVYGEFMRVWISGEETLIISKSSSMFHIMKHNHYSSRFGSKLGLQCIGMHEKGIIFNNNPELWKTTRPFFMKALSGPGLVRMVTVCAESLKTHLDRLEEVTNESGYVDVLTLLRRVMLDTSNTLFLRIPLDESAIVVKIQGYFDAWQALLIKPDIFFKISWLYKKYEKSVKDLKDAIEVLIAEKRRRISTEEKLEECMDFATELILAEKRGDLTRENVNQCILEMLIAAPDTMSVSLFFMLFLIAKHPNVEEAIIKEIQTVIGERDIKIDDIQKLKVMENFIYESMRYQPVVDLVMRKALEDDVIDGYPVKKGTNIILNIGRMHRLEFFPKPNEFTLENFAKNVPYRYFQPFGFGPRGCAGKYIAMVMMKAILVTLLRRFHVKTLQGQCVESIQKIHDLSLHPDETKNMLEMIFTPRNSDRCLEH
# Chain of UniProt P03372 (P03372 whole entry, looked up): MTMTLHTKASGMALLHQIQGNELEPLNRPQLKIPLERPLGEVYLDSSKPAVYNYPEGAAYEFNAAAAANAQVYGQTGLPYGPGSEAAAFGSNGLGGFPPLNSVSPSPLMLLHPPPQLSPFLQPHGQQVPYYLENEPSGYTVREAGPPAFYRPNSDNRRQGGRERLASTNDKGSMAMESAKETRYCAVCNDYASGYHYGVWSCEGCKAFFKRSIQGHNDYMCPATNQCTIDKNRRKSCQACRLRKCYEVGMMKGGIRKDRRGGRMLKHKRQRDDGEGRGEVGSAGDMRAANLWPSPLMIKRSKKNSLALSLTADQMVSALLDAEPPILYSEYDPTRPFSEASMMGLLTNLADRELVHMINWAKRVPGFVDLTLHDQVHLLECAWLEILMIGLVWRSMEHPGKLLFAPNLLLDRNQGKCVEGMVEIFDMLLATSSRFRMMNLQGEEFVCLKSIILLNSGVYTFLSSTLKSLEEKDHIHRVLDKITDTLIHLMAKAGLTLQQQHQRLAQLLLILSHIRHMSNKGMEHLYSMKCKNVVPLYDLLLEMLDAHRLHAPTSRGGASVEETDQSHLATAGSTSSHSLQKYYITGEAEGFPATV
# Chain of UniProt P10275 (P10275 whole entry, looked up): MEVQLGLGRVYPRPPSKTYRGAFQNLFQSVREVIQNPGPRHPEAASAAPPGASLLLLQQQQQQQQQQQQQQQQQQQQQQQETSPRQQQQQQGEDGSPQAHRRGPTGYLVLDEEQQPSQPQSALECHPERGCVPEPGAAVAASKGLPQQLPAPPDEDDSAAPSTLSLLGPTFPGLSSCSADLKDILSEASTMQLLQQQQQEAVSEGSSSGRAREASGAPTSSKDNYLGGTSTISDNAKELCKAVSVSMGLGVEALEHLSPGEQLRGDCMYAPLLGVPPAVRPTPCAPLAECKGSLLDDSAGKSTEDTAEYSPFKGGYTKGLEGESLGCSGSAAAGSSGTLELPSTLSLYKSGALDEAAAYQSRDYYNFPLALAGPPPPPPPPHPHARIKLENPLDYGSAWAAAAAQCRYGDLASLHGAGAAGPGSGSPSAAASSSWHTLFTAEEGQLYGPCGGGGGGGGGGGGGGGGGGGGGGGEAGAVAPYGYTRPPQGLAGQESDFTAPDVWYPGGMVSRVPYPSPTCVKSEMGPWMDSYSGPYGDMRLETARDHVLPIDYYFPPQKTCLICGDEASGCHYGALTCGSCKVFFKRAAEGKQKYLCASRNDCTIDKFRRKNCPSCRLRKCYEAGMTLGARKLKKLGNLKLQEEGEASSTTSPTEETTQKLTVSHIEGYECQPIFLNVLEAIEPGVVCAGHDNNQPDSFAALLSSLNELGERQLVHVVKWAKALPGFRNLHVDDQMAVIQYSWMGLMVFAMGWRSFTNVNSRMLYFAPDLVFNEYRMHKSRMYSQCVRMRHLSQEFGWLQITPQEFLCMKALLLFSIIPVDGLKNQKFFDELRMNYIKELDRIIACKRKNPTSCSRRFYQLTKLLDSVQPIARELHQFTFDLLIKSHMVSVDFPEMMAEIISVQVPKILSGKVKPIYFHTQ
smiles,measurement,setting,value
CCCCCCCCCCCCOC(=O)c1ccc(O)cc1,Potency,[1],"inconclusive: 30.9 µM [activator, partial curve]"
Cc1cccc(C)c1NC(=O)C(C)N (centres undefined),Potency,[2],inactive
Nc1nc(N)c2nc(CNc3ccc(C(=O)N[C@@H](CCC(=O)O)C(=O)O)cc3)cnc2n1,"activity change, negative = cytotoxicity",[2],inconclusive: -92.4%
same,Potency,[3],active: 13.3 µM
same,"activity, negative = cytotoxicity",[3],inconclusive: -89.3%
same,Potency,[4],"inconclusive: 64 µM [rising, single point]"
same,Potency,[5],inconclusive: 33.5 µM [inhibitor]
same,Potency,[6],"inconclusive: 513 nM [cytotoxic, full curve]"
same,Potency,[7],"inconclusive: 0.0718 µM [falling, full curve]"
same,Potency,[8],"inconclusive: 50.8 µM [rising, partial curve, poor fit]"
Cc1ccc(S(=O)(=O)NC(=O)NC2CCCCC2)cc1,Potency,[2],inactive
COc1cccc([C@H](O)C2CCN(CCc3ccc(F)cc3)CC2)c1OC,Potency,[9],inactive
same,Potency,[10],"inconclusive: 68.6 µM [cytotoxic, single point]"
same,Potency,[5],inconclusive: 61.1 µM [inhibitor]
CCCCCCCCCCCCCCCCCC(=O)OCC(O)CO (centres undefined),Potency,[2],"inconclusive: 13.5 µM [rising, single point]"
O=C1OC2(c3ccccc31)c1cc(I)c(O)c(I)c1Oc1c2cc(I)c(O)c1I,Potency,[2],"inconclusive: 18.8 µM [cytotoxic, partial curve, poor fit] and inconclusive: 34.8 µM [cytotoxic, partial curve]"
same,Potency,[3],"inconclusive: 30.7 µM [cytotoxic, partial curve]"
same,"activity, negative = cytotoxicity",[3],inconclusive: -35.6% [cytotoxic]
same,Potency,[11],"inconclusive: 23.7 µM [cytotoxic, partial curve] and inconclusive: 34.4 µM [cytotoxic, partial curve]"
same,Potency,[12],"inconclusive: 33.4 µM [cytotoxic, single point]"
same,Potency,[10],active: 19.4 µM [middle of 4 runs]
same,Potency,[6],"inconclusive: 15.1 µM [cytotoxic, single point] and inconclusive: 43.8 µM [cytotoxic, partial curve]"
same,Potency,[8],active: 10.9 µM [middle of 4 runs]
same,Potency,[13],"inconclusive: 13.3 µM [inhibitor, single point] and inconclusive: 27.4 µM [inhibitor, partial curve] and inconclusive: 34.8 µM [inhibitor, partial curve]"
O=C(O)c1ccccc1-n1cc(C(=O)O)c(=O)c2cc(Nc3c(F)cc(F)cc3Cl)c(Cl)cc21,Potency,[2],"inconclusive: 7.7 µM [rising, full curve, poor fit]"
C=C(C)C(=O)OCCC[Si](Cl)(Cl)Cl,Potency,[2],"inconclusive: 69.2 µM [rising, single point]"
CNC(=O)c1ccccc1,Potency,[9],inactive
same,Potency,[14],inactive
same,Potency,[6],inactive
same,Potency,[7],inactive
CO[C@@H]1COCC[C@@H]1N[C@@H]1CC[C@@](C(=O)N2CCc3ncc(C(F)(F)F)cc3C2)(C(C)C)C1,Potency,[2],"inconclusive: 68.3 µM [cytotoxic, single point]"
same,Potency,[3],"inconclusive: 15.3 µM [cytotoxic, full curve]"
same,Potency,[11],"inconclusive: 68.3 µM [cytotoxic, single point]"
CCCC/C=C\CCCCCCCCCC=O,"activity change, negative = cytotoxicity",[2],inconclusive: 17.8%
same,Potency,[3],inactive
C#C[C@]1(OC(C)=O)CC[C@H]2[C@@H]3CCC4=C/C(=N/O)CC[C@@H]4[C@H]3CC[C@@]21CC,Potency,[9],active: 21.3 µM
same,Potency,[10],"inconclusive: 33.5 µM [cytotoxic, single point]"
same,activation,[14],inconclusive: -9.22% [phenotype inactive]
same,Potency,[15],"inconclusive: 21.3 µM [rising, partial curve, poor fit]"
same,Potency,[6],inactive
same,Potency,[16],active: 0.106 µM
same,Potency,[8],inactive
CC(C)c1ccc2ncccc2c1,Potency,[2],inactive
same,Potency,[3],inactive
CCC1OCC(COc2ccc(Oc3ccccc3)cc2)O1 (centres undefined),Potency,[2],"inconclusive: 24.3 µM [cytotoxic, full curve]"
same,Potency,[3],inactive
same,Potency,[11],"inconclusive: 24.3 µM [cytotoxic, partial curve]"
CN(C)CCOC(C)(c1ccccc1)c1ccccn1 (centres undefined),Potency,[2],"inconclusive: 68.7 µM [rising, single point]"
same,Potency,[3],"inactive and inconclusive: 68.6 µM [cytotoxic, single point]"

# Source: PubChem BioAssay (Tox21)
